We go through 59 compounds from PubChem BioAssay AID1508624 (National Center for Advancing Translational Sciences (NCATS), 2021).

Screen size: about 48,000 compounds; about 120 (0.25%) were called active. Inconclusive results (about 4%) are left out. Calls come from the whole dose curve; as a rule, active = well fitted activation curve with a large enough effect; inconclusive = small, poorly fitted or top-dose-only effect, or another doubt; inactive = no such curve, though single readings can be large or run the other way. The list shows a part of the results.

The nature of the test: Primary qHTS for Identification of Small Molecule Activators of Huntingtin-Antisense Promoter Activity. Note: nearly all actives have a fitted effect of over 55% in size. To be noted: HEK293 HTT-AS promoter firefly luciferase reporter, 24 h; series mostly up to 57.5 µM; activity change, positive = activation: at the top concentration. The source says: Assay Provider: Russell L. Margolis M.D.
Department Neurology, Johns Hopkins University School of Medicine, Baltimore, MD
Huntington's Disease (HD) is a neurodegenerative disorder caused by a CAG repeat expansion in exon 1 of huntingtin (HTT). While there are currently no disease-modifying treatments for HD, recent efforts have focused on development of nucleotide-based therapeutics to lower HTT expression. As an alternative to siRNA or oligonucleotide methods, we hypothesized that suppression of HTT expression might be accomplished by small molecules that either (1) directly decrease HTT expression by suppressing HTT promoter activity or (2) indirectly decrease HTT expression by increasing the promoter activity of HTT-AS, the gene antisense to HTT that appears to inhibit expression of HTT.
We developed and employed a high throughput screen for modifiers of HTT and HTT-AS promoter activity using luminescent reporter HEK293 cells; of the 52,041 compounds tested, we identified 898 replicable hits. We used a rigorous stepwise approach to assess compound toxicity and the capacity of the compounds to specifically lower huntingtin protein in 5 different cell lines, including HEK293 cells, HD lymphoblastoid cells, mouse primary neurons, HD iPSCs differentiated into cortical-like neurons, and HD hESCs. We found no compounds which were able to lower huntingtin without lowering cell viability in all assays, though the potential efficacy of a few compounds at non-toxic doses could not be excluded.
SEQUENCE No. (1, 2, 3, etc.); […] (e.g., Cells, Incubation, Reagent, etc.); VALUE and DESCRIPTION.
1; Reagent; 4 uL; 2,500 Hek293 luciferase reporter cells per wells
3; Compound; 23 nL; Control inhibitor / compound library
5; Reagent; 2.5 uL; Firefly Luc reagent; Dual-Glo Luciferase Reporter Assay System (Promega)
6; Time; 10 min; room temperature incubation
7; Detection; Luminescence; FLuc
NOTES (numbers refer to sequence above)
1; High-throughput screening, measuring luminescence from a Hek293 luciferase reporter, was performed in 1,536 well white-walled tissue-culture treated plates. 2,500 cells were plated in 4 µL of Opti-MEM per well using a Multidrop Combi Reagent Dispenser (ThermoFisher).
2; Assay plates were cultured for 24 hours.
3; Control inhibitor (PTC124; final concentration of 50 uM) and compound library (at final concentrations of 460 nM - 57.5 uM) were added to the assay plate using the Kalypsis Pintool Robotic System equipped with 1536 pinheads.
4; Cells were then incubated for 24 hours at 37 degrees C prior to luminescence measurements.
5; In all cases, luminescence was measured using the Dual-Glo Luciferase Reporter Assay System (Promega) following the manufacturer's instructions.
6; Room temperature incubation.
7; Luminescence signal was obtained using the PerkinElmer ViewLux plate reader. Results were normalized to vehicle control (0% activity) and zero RLU (-100% activity).
In general terms: qHTS replaces the single test concentration by a dilution series.
`Cc1nc2nc(C)c(CCC(=O)NCCc3ccccc3)c(C)n2n1`: the “activity change, positive = activation” value was inactive: 13.2%.
With `O=C(Cn1cc(S(=O)(=O)Cc2ccccc2Cl)c2ccccc21)Nc1cccc(C(F)(F)F)c1` the figure was inactive: -33.8%.
With `Cc1ccc(S(=O)(=O)N(CC(=O)Nc2c(C)cccc2C)c2cccc(Cl)c2)cc1` the figure was inactive: -37.9%; with `CCOc1ccc(C(NC(=O)c2cc(OC)c(OC)c(OC)c2)c2cc(Cl)c3cccnc3c2O)cc1` (centres undefined), inactive: -37.2%.
Consider `CC(C)Oc1cccc(C(=O)Nc2ccc3oc(-c4ccccc4)nc3c2)c1`, for which the “activity change, positive = activation” value is inactive: 3.96%.
Then `Cc1ccc2nc(CN3CCN(S(=O)(=O)c4ccccc4)CC3)oc2c1`, with inactive: -3.42%; and `COC(=O)c1cc(C)nc2c1c(=O)nc(SCc1c(C)cc(C)cc1C)n2C1CC1`, with inactive: -39.8%; and `CCc1ccc(NC(=O)CSc2nc3ccccc3c(=O)n2CCC(=O)NC2CCCCC2)cc1`, with inactive: -0.711%.
With `CCC(Sc1nc2cc3c(cc2c(=O)n1CCCC(=O)NCc1ccc2c(c1)OCO2)OCO3)C(=O)NCCCOC` (centres undefined) the figure was inactive: -9.88%; with `CCC(=O)N1c2ccc(S(=O)(=O)N3CCCCCC3)cc2CC1C` (centres undefined), inactive: -18.6%.
In the case of `Cc1ccc(NC(=O)COc2ccc(-c3nn(C)c(=O)c4ccccc34)cc2)c(C)c1`, the “activity change, positive = activation” value was inactive: -43.2%.
Consider `Cc1ccc(O)c([C@H](CCN(C(C)C)C(C)C)c2ccccc2)c1`, for which the “activity change, positive = activation” value was inactive: -8.63%.
Then `CSc1nn(Cc2ccc(F)cc2)c(N)c1S(=O)(=O)c1ccc(Cl)cc1`, with inactive: -37.3%; and `CCCN(CCC)CCCNC(=O)C1CCN(S(=O)(=O)c2cccc3nsnc23)CC1`, with inactive: -1.88%; and `CCOc1ccc(S(=O)(=O)N2CCN(c3ccc(C)cc3C)CC2)c2ccccc12`, with inactive: -21.5%.
Then `COc1cccc(CSc2nc(-c3ccccc3OC)nc3c2Cc2c(CO)cnc(C)c2O3)c1`, with inactive: -35.6%; and `Cc1ccccc1C(C(=O)NC1CCCC1)N(C(=O)Cn1cnc2ccccc21)c1cccc(F)c1` (centres undefined), with inactive: -19.4%.
Then `CCCCCCCCCCCCCCCCO`, with inactive: -5.33%.
Regarding `O=C1COc2ccc(-c3cc(-c4ccc(F)cc4)c4c(n3)-c3ccccc3OC4)cc2N1`, the “activity change, positive = activation” value is inactive: -11.5%.
In the case of `CCN(C(=O)c1ccc2c(=O)n3c(nc2c1)CCCCC3)c1cc(C)ccc1C`, the “activity change, positive = activation” value was inactive: -11.1%.
For `Cc1ccc(C(=O)CC2(O)C(=O)N(Cc3ccccc3)c3ccc(Br)cc32)cc1` (centres undefined), the “activity change, positive = activation” value was inactive: -27.4%.
With `CCCCOC(=O)c1ccc(NC(=O)/C(C#N)=C/c2ccc(C)o2)cc1` the figure was inactive: -16.3% [at 11.5 µM, percent change from vehicle, -100% = no light].
As to `CCCCNS(=O)(=O)c1ccc2nc(-c3cccnc3)cc(C(=O)NCCCOCC)c2c1`, the “activity change, positive = activation” value is inactive: 3.08%.
Regarding `Cc1ccc(NC(=O)COCc2cc(-c3cccs3)on2)cc1Cl`, the “activity change, positive = activation” value was inactive: 10.1%.
Then `C[C@H]1c2cccc(O)c2C(O)=C2C(=O)[C@]3(O)C(O)=C(C(N)=O)C(=O)[C@@H](N(C)C)[C@@H]3[C@@H](O)[C@@H]21`, with “inactive”.
`CCOc1ccccc1CNC(=O)CCn1cccn1`: the “activity change, positive = activation” value was inactive: -8.76%.
On to `Cc1[nH]c2ccccc2c1C(=O)C(=O)NC1CC(=O)N(c2ccccc2)C1` (centres undefined), for which the “activity change, positive = activation” value was inactive: -9.53%.
Then `COC(=O)c1ccc(NC(=O)CN(c2cccc(C(F)(F)F)c2)S(C)(=O)=O)cc1`, with inactive: -17.6%.
Regarding `Cc1cccc(-n2c(SCC(=O)Nc3ccccc3C)nc3c(oc4ccccc43)c2=O)c1`, the “activity change, positive = activation” value is inactive: -29.2%.
With `CCc1ccccc1N1C(=O)N(C)c2ccccc2S1(=O)=O`, the “activity change, positive = activation” value is inactive: -21.9%.
Regarding `CCn1cc2nc(SCc3cccc(F)c3)n(CCc3ccccc3)c(=O)c2n1`, the “activity change, positive = activation” value is inactive: -37.6%.
For the compound `CCC(Cc1ccccc1)NC(=O)Cn1ncc2c3ccccc3n(Cc3ccc(F)cc3)c2c1=O` (centres undefined), the “activity change, positive = activation” value was inactive: -14.2%.
With `COc1ccc(Cl)cc1NC(=O)CCCS(=O)(=O)c1nc(-c2ccc(OC)c(OC)c2)cc(C(F)(F)F)n1` the figure was inactive: -92.1%.
Then `O=C(O)CCn1ccc2cc(S(=O)(=O)N3CCCCC3)ccc21`, with inactive: -23.5%; and `O=C(NCc1ccccc1Cl)C1CCN(c2ncnc3c2nc2n3CCCCC2)CC1`, with inactive: -13.2%.
Turning to `COc1ccc(-c2csc(-c3c(N)c(C(=O)c4ccccc4)n4ccccc34)n2)cc1`, the “activity change, positive = activation” value is inactive: 0.0736%.
Then `COc1ccc2nc3cc(Cl)ccc3c(Nc3cc(CN4CCCC4)c(O)c(CN4CCCC4)c3)c2n1`, with inactive: -6.23%; and `Cc1cc(C)n2c(Nc3cccc(C(F)(F)F)c3)c(-c3ccsc3)nc2n1`, with inactive: -21.5%.
Then `Cc1nnc(NC(=O)CSCc2cc(=O)c3ccc(C)c(C)c3[nH]2)s1`, with inactive: -7.14%; and `CC(C)c1ccc(S(=O)(=O)c2cnc(SCC(=O)Nc3ccc(F)cc3F)nc2N)cc1`, with inactive: -30.3%; and `Cc1ccc(-n2nc3c(N4CCC(C(=O)NCCC(C)C)CC4)nnc(C)c3c2C)cc1`, with inactive: -21.1%.
On to `Cc1ccc2oc(=O)c3cc(C(=O)Nc4cccc(C#N)c4)sc3c2c1`, for which the “activity change, positive = activation” value is inactive: -6.81%.
With `CCC(=O)N1c2ccccc2CC1C(=O)NCCc1ccc(Cl)cc1` (centres undefined) the figure was inactive: -2.62%; with `O=C(CN1CCN(c2ccc(Cl)cc2)CC1)Nc1ccc(F)c(F)c1`, inactive: -16.3%; with `O=C(Cn1nnnc1-c1ccccc1F)Nc1ccc(F)c(F)c1`, inactive: -1.5%.
With `Cc1cc(C)cc(-n2ccnc2SCC(=O)Nc2ccc(C)c(Cl)c2)c1` the figure was inactive: -18.6%; with `CCOc1ccccc1NC(=O)c1nnn(CC(=O)Nc2ccccc2CC)c1N`, inactive: -10.8%; with `COc1ccc(NC(=O)c2[nH]nc3c2CSc2ccccc2-3)c(OC)c1`, inactive: 2.09%.
Then `CCCOc1cccc(C2c3c(oc4cc(C)c(C)cc4c3=O)C(=O)N2CCCN2CCOCC2)c1` (centres undefined), with inactive: -9.18%.
Take `CSc1cccc(NC(=O)CN(C)S(=O)(=O)c2ccc3c(c2)CCCN3C(C)=O)c1`: the “activity change, positive = activation” value was inactive: -9.77%.
With `CCC(=O)N1CCc2cc(S(=O)(=O)NC(C(=O)NCCc3ccc(C)cc3)C(C)C)ccc21` (centres undefined) the figure was inactive: -1.83%; with `Cc1ccc(-c2n[nH]c3c2C(c2cccs2)N(c2ccc(Cl)cc2)C3=O)cc1` (centres undefined), inactive: -55.4%.
Then `Cc1ccc(C)c(C(=O)CSc2nc3cc(C(=O)NC4CCCC4)ccc3c(=O)n2CC2CCCO2)c1` (centres undefined), with inactive: 3.33%; and `COCc1cc(C)n(CC(=O)Nc2cccc(C(C)=O)c2)c(=O)c1C#N`, with inactive: -7.7%.
As to `Cc1ccc(-c2nc3cc(NC(=O)c4cc(Br)ccc4Cl)ccc3o2)cc1`, the “activity change, positive = activation” value is inactive: 12.5%.
Then `CCOc1ccccc1C(=O)N1CCCCC1CCN1CCOCC1` (centres undefined), with inactive: -4.42%.
With `CC1CCN(S(=O)(=O)c2cn(CC(=O)Nc3ccc(F)cc3)c(=O)c3ccccc23)CC1` the figure was inactive: -36.1%; with `CC(C)CCNC(=O)c1ccc2c(c1)N(C)C(=O)c1ccccc1S2`, inactive: -18.3%.
Take `CO[C@@H]1[C@@H](OC)[C@H](C)[C@@](O)(CC(=O)O)O[C@H]1[C@H](C)[C@H]1O[C@@]2(CC[C@@](C)([C@H]3CC[C@@](C)([C@@H]4O[C@@H]([C@H]5O[C@](C)(O)[C@H](C)C[C@@H]5C)C[C@@H]4OC4C[C@H](OC)[C@@H](OC)[C@H](C)O4)O3)O2)C[C@H](O)[C@H]1C` (some centres undefined): the “activity change, positive = activation” value was inactive: -68.6%.
